# Measurements reported in the supplement of paper PMC8728848.
# Some of the results follow.
# B1: PhoSpL (Pholiota squarrosa) (peptide)
# chain: APVPVTKLVCDGDTYKCTAYLDFGDGRWVAQWDTNVFHTG
# Legend:
# Assay in all cases: glycan array binding signal (z-score within array); higher = stronger binding
# Details in all cases: glycan notation: IUPAC condensed, linker removed
# [1] = biological target: Fuc(a1-2)Gal6S(b1-3)GlcNAc
# Procedure, shortened: (§1)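 Glycan array data came from 3228 arrays in the Consortium for Functional Glycomics database, and only arrays with an available protein sequence were kept. Glycan names were put into IUPAC-condensed notation, and columns mapping to the same glycan were averaged. The binding signal is a within-array Z-score, averaged across arrays of one protein sequence run at different concentrations or buffers and across linkers. A negative Z-score can be read as non-binding.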
# [2] = biological target: Fuc(a1-2)Gal6S(b1-3)GlcNAc6S
# Procedure, shortened: as §1
# Fuc(a1-2)Gal6S(b1-4)Glc = biological target: Fuc(a1-2)Gal6S(b1-4)Glc
# Procedure, shortened: as §1
# [3] = biological target: Fuc(a1-2)Gal6S(b1-4)Glc6S
# Procedure, shortened: as §1
# Fuc(a1-2)[Gal(a1-3)]Gal = biological target: Fuc(a1-2)[Gal(a1-3)]Gal
# Procedure, shortened: as §1
# [4] = biological target: Fuc(a1-2)[Gal(a1-3)]Gal(b1-3)GalNAc
# Procedure, shortened: as §1
# [5] = biological target: Fuc(a1-2)[Gal(a1-3)]Gal(b1-3)GalNAc(b1-3)Gal(a1-4)Gal(b1-4)Glc
# Procedure, shortened: as §1
# [6] = biological target: Fuc(a1-2)[Gal(a1-3)]Gal(b1-3)GlcNAc
# Procedure, shortened: as §1
# [7] = biological target: Fuc(a1-2)[Gal(a1-3)]Gal(b1-3)GlcNAc(b1-2)Man(a1-3)[Fuc(a1-2)[Gal(a1-3)]Gal(b1-3)GlcNAc(b1-2)Man(a1-6)]Man(b1-4)GlcNAc(b1-4)GlcNAc
# Procedure, shortened: as §1
# [8] = biological target: Fuc(a1-2)[Gal(a1-3)]Gal(b1-3)GlcNAc(b1-2)Man(a1-3)[Fuc(a1-2)[Gal(a1-3)]Gal(b1-3)GlcNAc(b1-2)Man(a1-6)]Man(b1-4)GlcNAc(b1-4)[Fuc(a1-6)]GlcNAc
# Procedure, shortened: as §1
# [9] = biological target: Fuc(a1-2)[Gal(a1-3)]Gal(b1-3)GlcNAc(b1-3)GalNAc
# Procedure, shortened: as §1
# [10] = biological target: Fuc(a1-2)[Gal(a1-3)]Gal(b1-3)GlcNAc(b1-6)GalNAc
# Procedure, shortened: as §1
# [11] = biological target: Fuc(a1-2)[Gal(a1-3)]Gal(b1-4)Glc
# Procedure, shortened: as §1
# [12] = biological target: Fuc(a1-2)[Gal(a1-3)]Gal(b1-4)GlcNAc
# Procedure, shortened: as §1
# [13] = biological target: Fuc(a1-2)[Gal(a1-3)]Gal(b1-4)GlcNAc(b1-2)Man
# Procedure, shortened: as §1
# [14] = biological target: Fuc(a1-2)[Gal(a1-3)]Gal(b1-4)GlcNAc(b1-2)Man(a1-3)[Fuc(a1-2)[Gal(a1-3)]Gal(b1-4)GlcNAc(b1-2)Man(a1-6)]Man(b1-4)GlcNAc(b1-4)GlcNAc
# Procedure, shortened: as §1
# [15] = biological target: Fuc(a1-2)[Gal(a1-3)]Gal(b1-4)GlcNAc(b1-2)Man(a1-3)[Fuc(a1-2)[Gal(a1-3)]Gal(b1-4)GlcNAc(b1-2)Man(a1-6)]Man(b1-4)GlcNAc(b1-4)[Fuc(a1-6)]GlcNAc
# Procedure, shortened: as §1
# [16] = biological target: Fuc(a1-2)[Gal(a1-3)]Gal(b1-4)GlcNAc(b1-3)GalNAc
# Procedure, shortened: as §1
# [17] = biological target: Fuc(a1-2)[Gal(a1-3)]Gal(b1-4)GlcNAc(b1-3)[Fuc(a1-2)[Gal(a1-3)]Gal(b1-4)GlcNAc(b1-6)]GalNAc
# Procedure, shortened: as §1
# [18] = biological target: Fuc(a1-2)[Gal(a1-3)]Gal(b1-4)GlcNAc(b1-6)GalNAc
# Procedure, shortened: as §1
# [19] = biological target: Fuc(a1-2)[Gal(a1-3)]Gal(b1-4)[Fuc(a1-3)]Glc
# Procedure, shortened: as §1
# [20] = biological target: Fuc(a1-2)[Gal(a1-3)]Gal(b1-4)[Fuc(a1-3)]GlcNAc
# Procedure, shortened: as §1
# [21] = biological target: Fuc(a1-2)[Gal(a1-3)]Gal(b1-4)[Fuc(a1-3)]GlcNAc(b1-3)GalNAc
# Procedure, shortened: as §1
# [22] = biological target: Fuc(a1-2)[Gal(a1-4)]Gal(b1-4)GlcNAc
# Procedure, shortened: as §1
# [23] = biological target: Fuc(a1-2)[GalNAc(a1-3)]Gal
# Procedure, shortened: as §1
# [24] = biological target: Fuc(a1-2)[GalNAc(a1-3)]Gal(b1-3)GalNAc(a1-3)[Fuc(a1-2)]Gal(b1-4)GlcNAc
# Procedure, shortened: as §1
# [25] = biological target: Fuc(a1-2)[GalNAc(a1-3)]Gal(b1-3)GalNAc(b1-3)Gal(a1-4)Gal(b1-4)Glc
# Procedure, shortened: as §1
# [26] = biological target: Fuc(a1-2)[GalNAc(a1-3)]Gal(b1-3)GlcNAc
# Procedure, shortened: as §1
# [27] = biological target: Fuc(a1-2)[GalNAc(a1-3)]Gal(b1-3)GlcNAc(b1-2)Man(a1-3)[Fuc(a1-2)[GalNAc(a1-3)]Gal(b1-3)GlcNAc(b1-2)Man(a1-6)]Man(b1-4)GlcNAc(b1-4)GlcNAc
# Procedure, shortened: as §1
# [28] = biological target: Fuc(a1-2)[GalNAc(a1-3)]Gal(b1-3)GlcNAc(b1-2)Man(a1-3)[Fuc(a1-2)[GalNAc(a1-3)]Gal(b1-3)GlcNAc(b1-2)Man(a1-6)]Man(b1-4)GlcNAc(b1-4)[Fuc(a1-6)]GlcNAc
# Procedure, shortened: as §1
# [29] = biological target: Fuc(a1-2)[GalNAc(a1-3)]Gal(b1-3)GlcNAc(b1-3)GalNAc
# Procedure, shortened: as §1
# [30] = biological target: Fuc(a1-2)[GalNAc(a1-3)]Gal(b1-3)GlcNAc(b1-6)GalNAc
# Procedure, shortened: as §1
# [31] = biological target: Fuc(a1-2)[GalNAc(a1-3)]Gal(b1-4)Glc
# Procedure, shortened: as §1
# [32] = biological target: Fuc(a1-2)[GalNAc(a1-3)]Gal(b1-4)GlcNAc
# Procedure, shortened: as §1
# [33] = biological target: Fuc(a1-2)[GalNAc(a1-3)]Gal(b1-4)GlcNAc(b1-2)Man
# Procedure, shortened: as §1
# [34] = biological target: Fuc(a1-2)[GalNAc(a1-3)]Gal(b1-4)GlcNAc(b1-2)Man(a1-3)[Fuc(a1-2)[GalNAc(a1-3)]Gal(b1-4)GlcNAc(b1-2)Man(a1-6)]Man(b1-4)GlcNAc(b1-4)GlcNAc
# Procedure, shortened: as §1
# [35] = biological target: Fuc(a1-2)[GalNAc(a1-3)]Gal(b1-4)GlcNAc(b1-2)Man(a1-3)[Fuc(a1-2)[GalNAc(a1-3)]Gal(b1-4)GlcNAc(b1-2)Man(a1-6)]Man(b1-4)GlcNAc(b1-4)[Fuc(a1-6)]GlcNAc
# Procedure, shortened: as §1
# [36] = biological target: Fuc(a1-2)[GalNAc(a1-3)]Gal(b1-4)GlcNAc(b1-3)Gal(b1-4)GlcNAc
# Procedure, shortened: as §1
# [37] = biological target: Fuc(a1-2)[GalNAc(a1-3)]Gal(b1-4)GlcNAc(b1-3)Gal(b1-4)GlcNAc(b1-3)Gal(b1-4)GlcNAc
# Procedure, shortened: as §1
# [38] = biological target: Fuc(a1-2)[GalNAc(a1-3)]Gal(b1-4)GlcNAc(b1-3)GalNAc
# Procedure, shortened: as §1
# [39] = biological target: Fuc(a1-2)[GalNAc(a1-3)]Gal(b1-4)GlcNAc(b1-3)[Fuc(a1-2)[GalNAc(a1-3)]Gal(b1-4)GlcNAc(b1-6)]GalNAc
# Procedure, shortened: as §1
# [40] = biological target: Fuc(a1-2)[GalNAc(a1-3)]Gal(b1-4)GlcNAc(b1-6)GalNAc
# Procedure, shortened: as §1
# [41] = biological target: Fuc(a1-2)[GalNAc(a1-3)]Gal(b1-4)[Fuc(a1-3)]GlcNAc
# Procedure, shortened: as §1
# [42] = biological target: Fuc(a1-2)[GalNAc(a1-3)]Gal(b1-4)[Fuc(a1-3)]GlcNAc(b1-3)GalNAc
# Procedure, shortened: as §1
# [43] = biological target: Fuc(a1-2)[GalNAc(a1-4)]Gal(b1-4)GlcNAc
# Procedure, shortened: as §1
binder,measurement,setting,value
B1,glycan array binding signal (z-score),[1],-0.893
same,glycan array binding signal (z-score),[2],-0.201
same,glycan array binding signal (z-score),Fuc(a1-2)Gal6S(b1-4)Glc,-0.066
same,glycan array binding signal (z-score),[3],-0.035
same,glycan array binding signal (z-score),Fuc(a1-2)[Gal(a1-3)]Gal,-0.213
same,glycan array binding signal (z-score),[4],0.048
same,glycan array binding signal (z-score),[5],-0.214
same,glycan array binding signal (z-score),[6],-0.165
same,glycan array binding signal (z-score),[7],-0.043
same,glycan array binding signal (z-score),[8],1.13
same,glycan array binding signal (z-score),[9],-0.092
same,glycan array binding signal (z-score),[10],-0.031
same,glycan array binding signal (z-score),[11],0.496
same,glycan array binding signal (z-score),[12],-0.344
same,glycan array binding signal (z-score),[13],0.428
same,glycan array binding signal (z-score),[14],-0.015
same,glycan array binding signal (z-score),[15],1.36
same,glycan array binding signal (z-score),[16],-0.278
same,glycan array binding signal (z-score),[17],-0.188
same,glycan array binding signal (z-score),[18],0.079
same,glycan array binding signal (z-score),[19],0.001
same,glycan array binding signal (z-score),[20],0.046
same,glycan array binding signal (z-score),[21],-0.154
same,glycan array binding signal (z-score),[22],0.637
same,glycan array binding signal (z-score),[23],-0.032
same,glycan array binding signal (z-score),[24],-0.051
same,glycan array binding signal (z-score),[25],-0.22
same,glycan array binding signal (z-score),[26],0.14
same,glycan array binding signal (z-score),[27],0.171
same,glycan array binding signal (z-score),[28],0.538
same,glycan array binding signal (z-score),[29],0.435
same,glycan array binding signal (z-score),[30],-0.402
same,glycan array binding signal (z-score),[31],-0.087
same,glycan array binding signal (z-score),[32],-0.101
same,glycan array binding signal (z-score),[33],0.067
same,glycan array binding signal (z-score),[34],0.183
same,glycan array binding signal (z-score),[35],-0.095
same,glycan array binding signal (z-score),[36],-0.362
same,glycan array binding signal (z-score),[37],-0.28
same,glycan array binding signal (z-score),[38],0.044
same,glycan array binding signal (z-score),[39],-0.173
same,glycan array binding signal (z-score),[40],-0.257
same,glycan array binding signal (z-score),[41],-0.019
same,glycan array binding signal (z-score),[42],0.243
same,glycan array binding signal (z-score),[43],0.072
